These results are taken from PMC4336329 (PLoS ONE, 2015).

The campaign covered roughly 310,000 compounds. About 2,200 (0.71%) showed an effect of 50% or more. The effect is printed as a negative number. The list shows a part of the results.

For this assay, the target named is human ether-à-go-go-related gene (hERG) potassium channel (human, UniProt Q12809). The assay is described as follows: primary screen, population patch clamp on CHO cells stably expressing hERG.
human ether-à-go-go-related gene (hERG) potassium channel, sequence (Q12809 whole entry, looked up): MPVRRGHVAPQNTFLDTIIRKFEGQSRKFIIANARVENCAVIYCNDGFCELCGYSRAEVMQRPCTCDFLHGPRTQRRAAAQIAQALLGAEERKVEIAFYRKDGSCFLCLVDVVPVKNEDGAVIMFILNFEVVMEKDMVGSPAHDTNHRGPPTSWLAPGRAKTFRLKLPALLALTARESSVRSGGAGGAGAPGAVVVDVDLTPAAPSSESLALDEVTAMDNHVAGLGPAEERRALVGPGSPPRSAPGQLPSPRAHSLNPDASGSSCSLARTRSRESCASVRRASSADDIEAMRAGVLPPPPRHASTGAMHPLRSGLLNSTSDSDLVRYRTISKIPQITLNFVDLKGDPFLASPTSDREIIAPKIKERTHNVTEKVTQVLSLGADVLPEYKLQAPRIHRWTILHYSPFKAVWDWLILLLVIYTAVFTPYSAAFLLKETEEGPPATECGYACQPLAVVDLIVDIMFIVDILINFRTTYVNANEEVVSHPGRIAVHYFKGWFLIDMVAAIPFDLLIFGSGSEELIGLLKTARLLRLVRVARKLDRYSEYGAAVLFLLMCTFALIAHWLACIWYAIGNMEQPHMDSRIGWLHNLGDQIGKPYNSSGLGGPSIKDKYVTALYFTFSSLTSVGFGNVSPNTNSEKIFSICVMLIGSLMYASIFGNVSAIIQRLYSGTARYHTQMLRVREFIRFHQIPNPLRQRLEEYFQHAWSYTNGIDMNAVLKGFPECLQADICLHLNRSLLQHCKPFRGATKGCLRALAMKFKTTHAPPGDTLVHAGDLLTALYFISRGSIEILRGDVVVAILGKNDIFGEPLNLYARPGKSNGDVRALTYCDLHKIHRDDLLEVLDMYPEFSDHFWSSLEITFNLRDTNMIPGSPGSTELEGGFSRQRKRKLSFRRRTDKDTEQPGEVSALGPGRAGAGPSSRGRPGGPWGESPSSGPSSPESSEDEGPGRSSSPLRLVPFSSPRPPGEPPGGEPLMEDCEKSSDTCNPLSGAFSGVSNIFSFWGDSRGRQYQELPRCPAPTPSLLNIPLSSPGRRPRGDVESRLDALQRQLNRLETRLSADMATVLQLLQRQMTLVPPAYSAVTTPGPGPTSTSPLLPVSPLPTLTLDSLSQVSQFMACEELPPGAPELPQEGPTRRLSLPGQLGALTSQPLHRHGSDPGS
For the compound `CCOc1ccc(/C=N/NC(=O)CN2CCCCCCC2)cc1`, the “hERG current change (%, negative = inhibition) at 1uM” value is -15.7%.
The value for `Cc1cccc(C(=O)N2CCNC(=O)C2CC(=O)Nc2cccc(Cl)c2)c1` (stereo not shown) was 10.2%; that for `C/C=C/c1ccc(OCCN2CCc3ccccc3C2)c(OC)c1` was -20.8%; that for `Cc1ccc(NC(=O)CN(C)C(=O)c2cccc(S(=O)(=O)NCc3ccccc3)c2)cc1` was -7.69%.
With `O=C(NCCC1CCCCN1S(=O)(=O)c1ccc(F)cc1)C(=O)Nc1ccccc1` (stereo not shown), the “hERG current change (%, negative = inhibition) at 1uM” value came out at 7.03%.
The same measure for `COC(=O)c1ccc(COC(=O)C2CCN(S(=O)(=O)c3ccc(C)c(C)c3)CC2)o1`: 19.6%; for `O=C(NCC1CCCN1S(=O)(=O)c1ccccc1)c1cccc(Cl)c1` (stereo not shown): -6.54%; for `O=c1[nH]nc(-c2ccc(NCCO)c([N+](=O)[O-])c2)c2ccccc12`: 19%.
For `CC(C)=CCOc1ccc([C@@H]2COc3c(ccc4c3C=CC(C)(C)O4)C2)c(O)c1`, the “hERG current change (%, negative = inhibition) at 1uM” value was determined as 14.9%.
Take `Cc1nc(-c2ccc(-n3nncc3-c3ccco3)cc2)cs1`: the “hERG current change (%, negative = inhibition) at 1uM” value came to 7.29%.
Consider `COc1ccc(C23CC4CC(CC(C(=O)O)(C4)C2)C3)c(F)c1`, for which the “hERG current change (%, negative = inhibition) at 1uM” value is on record as 12.1%.
Consider `O=C(CNc1ccc2ccccc2c1)N/N=C/c1ccc([N+](=O)[O-])o1`, for which the “hERG current change (%, negative = inhibition) at 1uM” value was determined as 5.59%.
For the compound `CCC(=O)Nc1c2c(nn1-c1ccc(OC)cc1)CS(=O)C2` (stereo not shown), the “hERG current change (%, negative = inhibition) at 1uM” value was 11%.
The value for `CCOC(=O)Cc1cnc(NC(=O)CSc2nc(N)cc(N)n2)s1` was 5.09%; that for `NC(=O)CN1C(=O)C(=O)N(Cc2ccc(Cl)cc2)C1=O` was 11.6%.
Regarding `COc1ccc(N/N=C(C)/C(=N/O)C(=O)Nc2ccccc2)cc1`, the “hERG current change (%, negative = inhibition) at 1uM” value turned out to be 5.2%.
The value for `Cc1ccc(NC(=S)N2CCn3cccc3C2c2cccnc2)cc1` (stereo not shown) was -2.45%.
The value for `COc1ccccc1NC(=O)c1ccc(CS(=O)(=O)c2ccc(C)cc2)cc1` was 0.759%; that for `CN(C)CCN1C(=O)C2C3C=CC(C3)C2C1=O` (stereo not shown) was 15.4%.
The same measure for `Cc1ccc(NC2=NC(c3ccc(F)cc3)n3c(nc(C)cc3=O)N2)c(C)c1` (stereo not shown): 15.2%; for `COc1ccc(C(=O)c2sc3nc(-c4ccc(OC)cc4)ccc3c2N)cc1`: 8.98%; for `O=C(CCc1nnc2ccc(N3CCCCC3)nn12)NCC1CCN(Cc2ccc(F)cc2)CC1`: 14.3%.
`CCOc1ccc(C(=O)Nc2c3c(nn2-c2ccc(F)cc2)CS(=O)C3)cc1` (stereo not shown): the “hERG current change (%, negative = inhibition) at 1uM” value is 5.83%.
`CCc1ccc(NC(=O)NNC(=O)CCc2ccccc2)cc1`: the “hERG current change (%, negative = inhibition) at 1uM” value was 11.4%.
The same measure for `Cc1[nH]nc2nc(SCC(=O)NCCC3=CCCCC3)n(-c3ccc(Br)cc3)c(=N)c12`: 3.07%; for `CSc1nnc([C@@H](N)Cc2c[nH]c3ccccc23)o1.Cl`: 9.48%; for `CC(C)(C)NC(=O)COC(=O)c1nsc(Cl)c1Cl`: 13.2%.
The same measure for `Cc1nc2ncnn2c(N2CCN(C(c3ccccc3)c3ccccc3)CC2)c1C`: -10.9%; for `COc1ccc(C2Nc3ccccc3C(=O)N2Cc2ccccc2)cc1COc1ccccn1` (stereo not shown): -7.32%.
The same measure for `CCOc1ccc(C(c2c(C)[nH][nH]c2=O)c2c(C)[nH][nH]c2=O)cc1OC`: 6.76%.
For `CC(=O)c1ccc(-n2ccnc2)cc1`, the “hERG current change (%, negative = inhibition) at 1uM” value was 7.14%.
The same measure for `CCN(CC)S(=O)(=O)c1cc(-c2nnc(-c3ccc(Br)cc3)o2)ccc1Br`: 13.7%; for `Cc1ccccc1-n1c(C)cc(/C=C(\C#N)C(=O)NCC2CCCO2)c1C` (stereo not shown): 5.1%; for `Nc1cc(=O)[nH]c(SC/C=C/c2ccccc2)n1`: 9.32%.
The same measure for `Cc1ccc(C(=O)OCC(=O)N2CCC(c3ccccc3)=N2)c(C)c1`: 7.04%; for `NC(=S)NNC(=O)[C@@H]1CCCC[C@@H]1C(=O)O`: 26.8%; for `N#CCCn1cc(/C=N/O)c(-c2ccccc2)n1`: -1.87%.
On to `COc1ccccc1OCCNC(=O)CNC(=O)c1ccc(C(C)(C)C)cc1`, for which the “hERG current change (%, negative = inhibition) at 1uM” value was -8.23%.
The value for `Cc1ccnc(Nc2nc(-c3ccc(F)cc3)cs2)c1` was 15.7%; that for `CCOC(=O)CCCCC(=O)c1[nH]c(=O)[nH]c1Cn1cnc2ccccc21` was 9.51%.
The value for `CCc1ccc2nc(NC(=O)CSCc3c(C)noc3C)sc2c1` was -5.3%; that for `CCc1c(O)nc(SCC(=O)N2CCOCC2)n(-c2ccccc2)c1=O` was 16%; that for `COC(=O)CC1(c2ccc(OC)cc2)C(=O)c2ccccc2C1=O` was 8.75%.
With `NC(=O)c1cc(S(=O)(=O)Nc2ccccc2)cs1`, the “hERG current change (%, negative = inhibition) at 1uM” value turned out to be 13.6%.
The same measure for `COCCNC(=O)c1cc2cc(Br)cc(Br)c2oc1=O`: 20.2%; for `Nc1nc(CSc2nnnn2-c2ccc(F)c(Cl)c2)nc(N2CCOCC2)n1`: 1.76%.
Consider `CC1CCCCC1NC(=O)c1c(O)nc2ccccn2c1=O` (stereo not shown), for which the “hERG current change (%, negative = inhibition) at 1uM” value worked out at 5.38%.
The value for `O=C(CCN1C(=O)c2ccccc2C1=O)Nc1sc2c(c1C(=O)NCc1ccco1)CCCC2` was -2.26%.
In the case of `Cc1c(-c2cc[n+]([O-])cc2)oc2ccc(Br)cc2c1=O`, the “hERG current change (%, negative = inhibition) at 1uM” value is recorded as -15.6%.
The same measure for `COc1ccc(S(=O)(=O)NCc2ccc(C(=O)N3CCN(Cc4ccccc4)CC3)cc2)cc1`: 11%; for `COc1ccc(Cc2nnc(SCC(=O)Nc3ccccc3)[nH]c2=O)cc1`: 10.1%.
The same measure for `Cc1nnc(SCC(=O)Nc2nsc(-c3ccc(C(C)(C)C)cc3)n2)s1`: 5.33%; for `CC(C)Oc1cccc(-c2cc(C(=O)NC(=S)N(C)c3ccccc3C(=O)O)c3ccccc3n2)c1`: 13.4%.
The same measure for `Cc1ccn2c(CNCCn3cccn3)c(C(=O)N3CCCCCC3)nc2c1`: 8.37%; for `O=c1cc(CN2CCN(C/C=C/c3ccccc3)CC2)c2cc(O)ccc2o1`: -86%.
Regarding `Cc1cccc(NC(=S)N(c2ccccc2)C(C)C)c1C`, the “hERG current change (%, negative = inhibition) at 1uM” value is listed as -1.76%.
The same measure for `Cc1oc(-c2ccccc2F)nc1CS(=O)(=O)CC(=O)NCCCN1CC(C)CC(C)C1` (stereo not shown): 8.7%.
On to `O=C(CCC1CCCN(C(=O)CCN2CCCCC2=O)C1)NCc1ccccc1F` (stereo not shown), for which the “hERG current change (%, negative = inhibition) at 1uM” value was 16.8%.
The value for `O=C(CSc1ccc(-c2ccco2)nn1)Nc1ccc(F)cc1` was -21.2%; that for `COC(CNC(=O)c1cccc(-n2c(=S)[nH]c3cc(Cl)ccc3c2=O)c1)OC` was 13.5%.
The same measure for `COCCCNC(=O)CN1C(=O)CSc2ncccc21`: 4.29%.
With `O=C(Nc1ccncc1)c1ccc2c(c1)OCCO2`, the “hERG current change (%, negative = inhibition) at 1uM” value was determined as 11.3%.
The same measure for `Cn1cnc2cc(NC(=O)COc3ccccc3)ccc21`: 17.6%.
For the compound `CCN(CC)C(=O)Cn1cc(C(=O)C(=O)NCCCN2CCCCC2)c2ccccc21`, the “hERG current change (%, negative = inhibition) at 1uM” value is reported as 12.5%.
The value for `CCC(C(=O)NCCc1ccc(S(N)(=O)=O)cc1)c1ccccc1` (stereo not shown) was 12.6%.
The value for `O=C(c1ccc2c(=O)n(Cc3ccccc3Cl)c(=S)[nH]c2c1)N1CCCC1` was 9.61%.
The value for `Cc1ccc2c(c1)C1CN(C)CCC1N2C(=S)Nc1cccnc1` (stereo not shown) was 6.29%.
For `Cc1ccc(C(=O)OCC(=O)Nc2ccccc2Cl)c(O)c1`, the “hERG current change (%, negative = inhibition) at 1uM” value is recorded as 10.1%.
The value for `O=C(NC1CC2CCCC(C1)N2)c1ccccc1` (stereo not shown) was 12.8%; that for `CCC1=C(OC(=O)N(CC)CC)N2C(=O)OC(=NCC3CC3)[C@]2(Cc2ccccc2)[C@H]2C1=CC[C@H]1C(=O)N(CC)C(=O)[C@H]12` was 5.18%; that for `Cc1cccc2sc(N(CCN(C)C)C(=O)c3cc(Cl)sc3Cl)nc12.Cl` was -5.54%.
The value for `CCn1c2ccccc2c2cc(CNCCCN3CCOCC3)ccc21.Cl` was 10.5%; that for `CC(=O)Nc1ccc(S(=O)(=O)Nc2nc3ccccc3nc2Nc2ccc3ccccc3c2)cc1` was 16.8%.
The value for `Cc1ccc(C(C)C)c(OCC(=O)N/N=C/c2cccn2C)c1` was 9.67%; that for `COc1ccc(CNC(=O)C(C)OC(=O)CN2C(=O)COc3ccccc32)cc1` (stereo not shown) was 6.02%.
Turning to `COC(=O)CCNC(=O)Cc1c(C)n(C(=O)c2ccc(Cl)cc2)c2ccc(OC)cc12`, the “hERG current change (%, negative = inhibition) at 1uM” value came out at 8.1%.
The same measure for `O=C(NCCCN1CCCC(O)C1)c1cc(COc2ccc(F)cc2F)on1` (stereo not shown): 7.25%; for `O=c1[nH]n(Cc2ccccc2)c(=O)c2ccccc12`: 11%; for `CCc1ccc(C2C3=C(CC(C)(C)CC3=O)OC3=C2C(=O)CC(C)(C)C3)cc1`: 12.6%.
Consider `COC(=O)c1cccc(COC(=O)c2ccc(N(C)C)cc2)c1`, for which the “hERG current change (%, negative = inhibition) at 1uM” value is -5.82%.
Regarding `O=C1/C(=C\c2ccccc2)CCc2c1[nH]c1ccccc21`, the “hERG current change (%, negative = inhibition) at 1uM” value worked out at 6.85%.
For `Cc1cc(C)n(C(=O)CNC(=O)Cc2ccccc2)n1`, the “hERG current change (%, negative = inhibition) at 1uM” value amounted to 12.4%.
The value for `O=C(/C=C/c1ccccc1)N/C(=C/c1ccccc1)C(=O)N1CCCCC1` was 2.01%.
The value for `O=C(NCc1ccc(F)cc1)c1cc(S(=O)(=O)N2CCCCC2)c[nH]1` was 8.4%; that for `CCOC(=O)/C(C#N)=C1/C=Nc2ccccc2N1` was 0.374%; that for `O=[N+]([O-])c1ccc(N2CCCC2)c(F)c1Br` was 6.24%.
The value for `COc1ccccc1CN1CCN(C(=O)c2cccc3ccccc23)CC1` was 10.4%.
`Cc1nn(-c2ccccc2)c(C)c1C(=O)OCC(=O)Nc1cccc(S(N)(=O)=O)c1`: the “hERG current change (%, negative = inhibition) at 1uM” value was 6.28%.
